Sequences with one replicate were seen in a single cluster, so their values are uncertain.
Test system: ATP
Assay: switch fluorescence ratio, 500 uM ATP over buffer (Cy3 cluster intensity, sum of 5 cycles each) (fold (ratio)); higher = stronger signal-on switching upon ATP binding; sequences stand for … in TCGTCGGCAGCGTCAGATGTGTATAAGAGACAGTTTTTTTTTTTTTTTTTTTTTTTTT…TC
Conditions: aptamer strand: ATP DNA aptamer (quencher-CACCTGGGGGAGTATTGCGGAGGAAGG + anchor), 100 nM annealed; ATP concentration: 500 uM; one replicate
Outline: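 The quencher-labelled ATP aptamer, at 100 nM, was annealed to Cy3-labelled switching-strand clusters on a modified Illumina MiSeq flow-cell. The clusters were imaged in selection buffer, then after 15 min with 500 uM ATP at 22 °C, and this buffer/ATP cycle ran five times with NaOH stripping and re-annealing between runs. Per-cluster fluorescence ratios, summed target-cycle over summed buffer-cycle Cy3 intensity, were averaged per switch-domain sequence. Clusters outside 100-1000 RFU were excluded.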
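Further: ATP exposure 15 min at 22 °C before imaging.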

Row | Sequence | switch fluorescence ratio
1 | AAGCCTTCGA | 1.12
2 | GGTCTTTCTT | 0.987
3 | TTAGCGAACC | 1.07
4 | GGTATAACTC | 0.994
5 | CGATGTTTAT | 1.03
6 | CATGTTTTAG | 0.98
7 | GAAGGTTGGG | 0.992
8 | GAAGGCACTG | 0.961
9 | ATGAATACG | 1.03
10 | AAAATCGCAA | 5.1
11 | CCTGTATCT | 0.946
12 | CGGGACCGTT | 0.992
13 | GGTAAGAGCA | 1.02
14 | ACATTGGACG | 1
15 | GAGGTGGTCT | 0.962
16 | GAGTCGGCAG | 1.04
17 | TGTTACAGGT | 1.04
18 | GCCGCTTCCA | 0.988
19 | AGACTGCACT | 1.38
20 | CAATATAAGA | 1.07
21 | GTTAGCCCCA | 0.994
22 | ACTCCGAGGG | 2.15
23 | CGAGCGTATT | 1.02

Row | Sequence | switch fluorescence ratio
24 | CTGAGGGACG | 0.953
25 | CATATTCGAA | 0.998
26 | TGGGTGTTG | 0.97
27 | AATAGAAGAG | 1.02
28 | ATGTTTTAGT | 0.964
29 | GTTTGATAA | 1.02
30 | TTCCTCGTCG | 0.913
31 | TGTCGTGCG | 1.02
32 | CATTAACTAT | 0.956
33 | TCATTTCATC | 1
34 | AAAGTCCAAG | 0.976
35 | CTGAGGATAT | 1.08
36 | TGTATTTTC | 1.03
37 | CGCAGATTTT | 1
38 | AAGATCAGAC | 0.985
39 | CAGATAGCGT | 1.01
40 | TGGTCGGCCT | 0.968
41 | AATCACTAGG | 1.05
42 | TGCTCCTGGA | 1.05
43 | CCCTTAGGTT | 1.06
44 | TGTATGCAGG | 0.935
45 | TTCGGATGAC | 1.73
46 | TGGGGCAGTT | 1.06

Row | Sequence | switch fluorescence ratio
47 | GGGTACCGAG | 1.03
48 | TGAAATCAGC | 0.998
49 | CCAATATCCA | 1.08
50 | TTCAATAGTG | 0.993
51 | TTAGTCAGCA | 1.08
52 | GGGCCAGCTA | 1.06
53 | TGTCCGGAGT | 1.11
54 | CTTGCCGAGC | 1.05
55 | CTGTAGGAAA | 1.02
56 | GGCAGCAGGT | 1.02
57 | CGGGTATCCA | 0.957
58 | GGGGTTCCAA | 1.02
59 | TTAGTAGCCC | 0.977
60 | GATAATTCGT | 1.05
61 | TGGATGCGGT | 0.974
62 | CTTAGAGGAG | 1.02
63 | GTGATGTGCG | 0.908
64 | TTGGACCCCG | 0.962
65 | ATTGGCTCTG | 0.986
66 | AGACGCTCCA | 1.1
67 | GATTTGCGTG | 1.02
68 | CTTGTTGGGA | 1
69 | TCGTCAGGCT | 1.07

Row | Sequence | switch fluorescence ratio
70 | CAGCCATTTT | 1.02
71 | TTTAACGTAG | 1.05
72 | GTATATGTCA | 1.02
73 | ATGCCTGACG | 1.13
74 | TAATAACTTG | 1
75 | TGCATCTGAA | 1
76 | GCGTGTGTCG | 1.04
77 | TTACTGAC | 1.21
78 | TGCCCGGTGT | 1.46
79 | GCGAGCGC | 0.983
80 | TATCAGGGGC | 1.05
81 | TGAATAAACG | 1.04
82 | GAAGGTGTGA | 1.08
83 | GCAGTGGTGC | 1.02
84 | GTGCTCGGAG | 0.965
85 | CCGCTGCCCC | 3.34
86 | TCGTGGAAGA | 1.04
87 | GAGATGAGTT | 0.998
88 | ATAGCTGGCC | 0.952
89 | GTATGATGC | 0.946
90 | GTACGGTTGG | 0.993
91 | AGTGTACGTC | 1.02
92 | AAGGTTCCCA | 1.03

Row | Sequence | switch fluorescence ratio
93 | CATTCAGCGG | 1.05
94 | ATTCTTTGTC | 0.985
95 | TCAAAAAACT | 1.07
96 | AAATTTCG | 0.986
97 | TATTGTAAGA | 0.977
98 | GAACGCTTTG | 1.08
99 | CTCGGGTAAC | 1.18
100 | GTGTTCCCAC | 0.97
101 | GTGCTTTGGT | 0.998
102 | ACACCGACGT | 1.56
103 | GGGCGATTTG | 1.02
104 | CGAACCCCGG | 1.51
105 | AGGCGCCAGT | 1.02
106 | TCATTTTGAG | 1.03
107 | CGTTCGAAGC | 1.08
108 | CTGTGGACGG | 0.998
109 | GCTGCGGTTG | 0.974
110 | ATGGGAGCAC | 0.977
111 | TTGATCCGAT | 0.953
112 | CCACGAGTA | 1.03
113 | CTGTGGTTAT | 1
114 | AATATTAAAG | 0.994
115 | GCCGAATAGT | 0.998

Row | Sequence | switch fluorescence ratio
116 | AGTATGCGGG | 1.04
117 | GCGTCGGGA | 1.01
118 | CTGGGAAGCG | 0.986
119 | AACCTGTCAA | 1.2
120 | GACTCACACA | 1.38
121 | TGGTCATTTA | 1.04
122 | GTGTTGATGA | 0.975
123 | GGATTTACTT | 1.04
124 | CCTGTGAGGG | 1.03
125 | TGTTTAATGA | 1.03
126 | ACTGAAGTGA | 1.02
127 | GGTTAATAGC | 0.968
128 | CTAGGCGTGG | 0.957
129 | AGCTTAAGTT | 0.98
130 | GCGTCAGCCA | 0.987
131 | CAAATGTC | 0.905
132 | TCAGCAGTTG | 0.949
133 | ACACGATTAG | 0.988
134 | AACGATGCAA | 1.78
135 | ATCACGGATG | 1.01
136 | CCCCGCGGGC | 4.3
137 | TTGACAACGG | 1.03
138 | TACGAACGGA | 1.44

Row | Sequence | switch fluorescence ratio
139 | GCCGCTCATG | 1.05
140 | GTCACGTCGT | 1.01
141 | CGGTCAATTT | 0.953
142 | GGCCTGATTC | 1.02
143 | GTATGGGCTT | 1.06
144 | TCGTAGGCAG | 1.27
145 | ACGAAGGCCT | 0.975
146 | TTCACTTGCA | 0.966
147 | GATCGCTAAT | 1.42
148 | CATCGGGGA | 0.97
149 | ATCCCTTGTA | 1.04
150 | TCACTTAATG | 0.958
151 | TGGGTTGCAC | 1.01
152 | TTTAATCTGC | 0.953
153 | TAACATCAGG | 1.08
154 | GTCGGAGC | 1.05
155 | TAGATGCATT | 0.992
156 | TCGAGCTTCC | 2.5
157 | AGGGGTATGA | 1.03
158 | GCGTTAAC | 1.06

Reference: the supplement of paper PMC10126150
